The target of test [1] is Peroxisome proliferator-activated receptor gamma (Homo sapiens) (UniProt P37231). In words: OT_PPARg_PPARgSRC1_1440: Odyssey Thera (OT) 24-hour Protein-Complementation Assay for Peroxisome Proliferator-activated Receptor Gamma/ SRC-1 Co-activator (AID 2283388; active means hit-call score of the fitted dose curve at least 0.9, where 1 is the maximum;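 further: nuclear to cytoplasmic ratio of reconstituted Venus YFP fluorescence in fixed imaged cells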). An outline of the steps:
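Cells carrying the PPARg/SRC-1 fragment-complementation reporter receive compound for 24 hours, are fixed and counterstained with Draq5, then imaged. Increased nuclear relative to cytoplasmic YFP fluorescence above DMSO baseline indicates binding activity.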

Test [2] deals with Cellular tumor antigen p53 (Homo sapiens) (UniProt P04637). In words: TOX21_p53_BLA_p2_ratio: Tox21 HCT-116 p53 Agonism Beta-lactamase Assay, Ratio, Phase 2 (AID 2283592; active means hit-call score of the fitted dose curve at least 0.9, where 1 is the maximum). An outline of the steps:
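DMSO-normalized, positive-direction endpoint derived from the 460 nm/530 nm FRET ratio in HCT116 p53 beta-lactamase reporter cells exposed 16 h at 37C and loaded with CCF4-AM for 2 h.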

Test [3] is described as follows: CEETOX_H295R_OHPREG: CeeTox H295R High-throughput Steroidogenesis Assay for OH-Pregnenolone (OHPREG) (AID 2283434). As to conditions: actives raise or lower the signal.
Read-out in test [4]: ABC Transporter (ABCB11), ABCB11 (gene 8647)
In words: LTEA_HepaRG_ABCB11: Life Technologies and Expression Analysis (LTEA) Assay for ABC Transporter (ABCB11) using HepaRG (AID 2283463). As to conditions: actives raise or lower the signal; mRNA level, 48 h. An outline of the steps:
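ABCB11 transcript levels quantified by TaqMan qRT-PCR against three housekeeping genes after 48 h chemical exposure of HepaRG cultures. Concentrations up to 100 uM in half-log steps, 0.5% DMSO vehicle; both induction and suppression scored.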

A short description of test [5]: CEETOX_H295R_MTT_cell_viability: Viability Assessment in the CeeTox HT-H295R MTT Assay (AID 2283718).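 On AC50: curve fitted both ways so AC50 may mark viability loss or gain.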
Test [6] deals with Peroxisome proliferator-activated receptor gamma (Homo sapiens) (UniProt P37231). In words: OT_PPARg_PPARgSRC1_0480: Odyssey Thera (OT) 8-hour Protein-Complementation Assay for Peroxisome Proliferator-activated Receptor Gamma / SRC-1 Co-activator (AID 2283387; active means hit-call score of the fitted dose curve at least 0.9, where 1 is the maximum;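 further: nuclear to cytoplasmic split Venus YFP fluorescence ratio reporting PPARg SRC-1 interaction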). The essentials: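 Split-YFP (IFP1/IFP2) PPARg/SRC-1 reporter, HEK293T, 37 °C, 5% CO2; 8 h compound; formaldehyde fix + Draq5; high-content imaging, N/C ratio, ≥350 cells/image, positive direction vs DMSO.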

Test [7] can be described thus: CCTE_Simmons_CellTiterGLO_HEK293T: Viability Assessment in CCTE's Assays for Thyroperoxidase (TPO) Inhibition, Simmons Lab (AID 2283665; active means hit-call score of the fitted dose curve at least 0.9, where 1 is the maximum). The essentials: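 Cells were seeded overnight, then exposed to an eight-point series up to 87.5 uM final for 24 hours. CellTiter-Glo reagent was added and luminescence read after 20 min, giving ATP-based viability versus DMSO.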
(ATP-based viability assays read luminescence as a measure of living cells.)

Test [8] in a line: ACEA_AR_antagonist_AUC_viability: ACEA Biosciences xCELLigence Real-Time Cell Analysis on Androgen Receptor Antagonism for Viability (AID 2283776; active means hit-call score of the fitted dose curve at least 0.9, where 1 is the maximum;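 further: 22Rv1 human prostate cancer cells growing on impedance electrode plates; area under impedance growth curve at 80 h after dosing as viability; hits lower the growth signal relative to DMSO meaning cytotoxicity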). The essentials:
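Viability endpoint from label-free cell-index monitoring: 22Rv1 cultures treated with an eight-point 1:4 dilution series starting at 100 uM final, AUC at 80 h fitted against DMSO.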

Read-out in the next test: CYP2C8 (gene 1558)
The test can be described thus: LTEA_HepaRG_CYP2C8: Life Technologies and Expression Analysis (LTEA) Assay for CYP2C8 using HepaRG (AID 2283483). Particulars: actives raise or lower the signal; mRNA level, 48 h. An outline of the steps:
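CYP2C8 expression measured by TaqMan qRT-PCR and normalized to three housekeeping genes. HepaRG cultures were treated for 48 h with an eight-point half-log series topping at 100 uM, vehicle 0.5% DMSO, duplicates; fitted both directions against DMSO.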

Read-out in test [9]: Cytochrome P450 7A1 (Homo sapiens) (UniProt P22680)
In words: LTEA_HepaRG_CYP7A1: Life Technologies and Expression Analysis (LTEA) Assay for Cytochrome P450 7A1 (CYP7A1) using HepaRG (AID 2283496). Particulars: actives raise or lower the signal; mRNA level, 48 h. An outline of the steps:
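HepaRG, 48 h exposure, 8-pt half-log series from 100 uM, 0.5% DMSO vehicle, duplicates. Readout: TaqMan qRT-PCR mRNA vs three housekeeping genes; bidirectional curve fit against DMSO baseline.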

Read-out in test [10]: growth arrest and DNA damage 45 (GADD45G), GADD45G (gene 10912)
In words: LTEA_HepaRG_GADD45G: Life Technologies and Expression Analysis (LTEA) Assay for growth arrest and DNA damage 45 (GADD45G) using HepaRG (AID 2283499). Particulars: actives raise or lower the signal; mRNA level, 48 h. The essentials:
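Concentration-response in HepaRG: 48 h dosing, 0.5% DMSO, highest level 100 uM. GADD45G expression by qRT-PCR, normalised to endogenous controls; bidirectional fit to DMSO.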

Read-out in test [11]: Transforming Growth Factor (TGFB1), TGFB1 (gene 7040)
In words: LTEA_HepaRG_TGFB1: Life Technologies and Expression Analysis (LTEA) Assay for Transforming Growth Factor (TGFB1) Transporter using HepaRG (AID 2283533). As to conditions: actives raise or lower the signal; mRNA level, 48 h. An outline of the steps:
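Eight-point concentration-response (max 100 uM, half-log) in HepaRG under serum-free induction conditions, 48 h. TGFB1 mRNA by qRT-PCR, housekeeping-normalized.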

The nature of test [12]: CEETOX_H295R_11DCORT: CeeTox H295R High-throughput Steroidogenesis Assay for 11-Deoxycortisol (11DCORT) (AID 2283432). As to conditions: actives raise or lower the signal. The essentials: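 Steroidogenesis in human H295R cells: 48 h chemical exposure after forskolin priming, 11-deoxycortisol measured by LC-MS/MS.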
Test [13] in a line: CEETOX_H295R_CORTISOL: CeeTox H295R High-throughput Steroidogenesis Assay for Cortisol (AID 2283438).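 Further: cortisol secreted into medium quantified by LC-MS/MS.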 As to conditions: actives raise or lower the signal. An outline of the steps:
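Cortisol synthesis by H295R cells is measured 48 h after chemical dosing, following a 48 h stimulation with 10 uM forskolin. Hormone is extracted and quantified by HPLC-MS/MS, and activity is fitted bidirectionally against the DMSO control.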

Read-out in test [14]: ABC Transporter (ABCB1), ABCB1 (gene 5243)
The test can be described thus: LTEA_HepaRG_ABCB1: Life Technologies and Expression Analysis (LTEA) Assay for ABC Transporter (ABCB1) using HepaRG (AID 2283460). Particulars: actives raise or lower the signal; mRNA level, 48 h. An outline of the steps: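 ABCB1 transcript level measured by TaqMan qRT-PCR against three housekeeping genes after 48 h chemical exposure of differentiated HepaRG cells. Top concentration 100 uM, half-log steps, eight points, 0.5% DMSO vehicle; bidirectional fit relative to DMSO.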

Read-out in test [15]: Alkaline Phosphatase, Placental (ALPP) gene, ALPP (gene 250)
In words: LTEA_HepaRG_ALPP: Life Technologies and Expression Analysis (LTEA) Assay for Alkaline Phosphatase, Placental (ALPP) gene using HepaRG (AID 2283468). As to conditions: actives raise or lower the signal; mRNA level, 48 h. The essentials:
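Using human liver HepaRG cells, chemicals are tested in duplicate over 48 h at half-log concentrations topping at 100 uM; phenobarbital 1 mM serves as induction control. ALPP mRNA change by qRT-PCR, bidirectional fit against vehicle.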

Read-out in test [16]: Cytochrome P450 3A4 (Homo sapiens) (UniProt P08684)
In words: LTEA_HepaRG_CYP3A4: Life Technologies and Expression Analysis (LTEA) Assay for CYP3A4 using HepaRG (AID 2283487). Particulars: actives raise or lower the signal; mRNA level, 48 h. The essentials:
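In a human hepatic line (HepaRG), duplicate wells were treated 48 h with up to 100 uM chemical in half-log dilutions. Endpoint: CYP3A4 mRNA induction or loss relative to 0.5% DMSO vehicle, by qRT-PCR.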

Read-out in test [17]: Early growth response protein 1 (EGR1) transcription factor, EGR1 (gene 1958)
In words: LTEA_HepaRG_EGR1: Life Technologies and Expression Analysis (LTEA) Assay for Early growth response protein 1 (EGR1) transcription factor using HepaRG (AID 2283490). Particulars: actives raise or lower the signal; mRNA level, 48 h. The essentials: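 EGR1 transcript levels quantified by qRT-PCR (Fluidigm arrays) against three housekeeping genes after 48 h chemical exposure of HepaRG cells. Eight-point half-log series topping at 100 uM, 0.5% DMSO vehicle, analyzed for gain or loss.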

Read-out in test [18]: UDP glucuronosyltransferase (UGT1A1), UGT1A1 (gene 54658)
The test can be described thus: LTEA_HepaRG_UGT1A1: Life Technologies and Expression Analysis (LTEA) Assay for UDP glucuronosyltransferase (UGT1A1) using HepaRG (AID 2283538). Particulars: actives raise or lower the signal; mRNA level, 48 h. The essentials: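 Cells are plated, cultured 48 h, switched to serum-free induction medium, then dosed 48 h at eight concentrations (max 100 uM, 0.5% DMSO). RNA is isolated and UGT1A1 expression measured by qRT-PCR; changes versus DMSO are fitted in both directions.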

The nature of test [19]: CEETOX_H295R_PROG: CeeTox H295R High-throughput Steroidogenesis Assay for Progesterone (PROG) (AID 2283442). As to conditions: actives raise or lower the signal. An outline of the steps:
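Measured analyte is progesterone secreted by H295R cells at 48 h of chemical treatment, following 10 uM forskolin priming. Quantitation used HPLC-MS/MS against a 7-point standard curve; cytotoxicity was checked by MTT absorbance.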

For test [20], the target named is Estrogen receptor (Homo sapiens) (UniProt P03372). The test can be described thus: OT_ERa_GFPERaERE_0480: Odyssey Thera (OT) 8-hour HeLa Transcription Induction Assay for Estrogen Receptor (AID 2283381). The essentials:
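Human cervical HeLa cells were treated for 8 hours, after which ERE-driven GFP induction was measured by fluorescence microscopy; increases over DMSO baseline defined activity.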

For test [21], the target named is Retinoic acid receptor RXR-alpha (Homo sapiens) (UniProt P19793). The test can be described thus: OT_NURR1_NURR1RXRa_0480: Odyssey Thera (OT) 8-hour HEK293T Protein Complementation Assay for Nurr1/retinoid X receptor (RXR) (AID 2283385; active means hit-call score of the fitted dose curve at least 0.9, where 1 is the maximum). The essentials:
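Interaction of bait and prey reconstitutes a functional reporter, whose fluorescence was measured in HEK293T cells dosed with compound for 8 hours. Signal gain relative to DMSO defined the single endpoint.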

One may read the AC50 as the concentration at which the activity in the assay is half-maximal.

For some of these results: What follows is the remainder of the data, with few or none of the hits. Results filed as inconclusive are left out. This is a selection; strong and weak results do not stand in their true shares. The source made the active and inactive calls. How the source made its calls, unless noted: active means hit-call score of the fitted dose curve at least 0.9, where 1 is the maximum; inactive means score below 0.9.

Sequence of UniProt P37231 (P37231 whole entry, looked up, the tested form may be a part): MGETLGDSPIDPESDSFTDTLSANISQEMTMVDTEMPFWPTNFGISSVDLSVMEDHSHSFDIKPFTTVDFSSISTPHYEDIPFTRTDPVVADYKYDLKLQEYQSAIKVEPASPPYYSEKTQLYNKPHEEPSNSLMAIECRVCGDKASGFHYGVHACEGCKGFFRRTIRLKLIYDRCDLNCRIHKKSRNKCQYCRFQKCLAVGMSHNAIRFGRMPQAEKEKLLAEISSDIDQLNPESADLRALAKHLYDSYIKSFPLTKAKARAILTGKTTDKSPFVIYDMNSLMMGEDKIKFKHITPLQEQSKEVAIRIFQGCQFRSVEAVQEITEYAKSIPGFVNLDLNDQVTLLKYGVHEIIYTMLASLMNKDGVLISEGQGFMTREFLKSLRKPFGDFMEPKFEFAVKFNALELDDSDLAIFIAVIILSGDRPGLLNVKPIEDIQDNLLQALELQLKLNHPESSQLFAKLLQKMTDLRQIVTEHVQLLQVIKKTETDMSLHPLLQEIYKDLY
Sequence of Cytochrome P450 7A1 (Homo sapiens) (P22680 whole entry, looked up): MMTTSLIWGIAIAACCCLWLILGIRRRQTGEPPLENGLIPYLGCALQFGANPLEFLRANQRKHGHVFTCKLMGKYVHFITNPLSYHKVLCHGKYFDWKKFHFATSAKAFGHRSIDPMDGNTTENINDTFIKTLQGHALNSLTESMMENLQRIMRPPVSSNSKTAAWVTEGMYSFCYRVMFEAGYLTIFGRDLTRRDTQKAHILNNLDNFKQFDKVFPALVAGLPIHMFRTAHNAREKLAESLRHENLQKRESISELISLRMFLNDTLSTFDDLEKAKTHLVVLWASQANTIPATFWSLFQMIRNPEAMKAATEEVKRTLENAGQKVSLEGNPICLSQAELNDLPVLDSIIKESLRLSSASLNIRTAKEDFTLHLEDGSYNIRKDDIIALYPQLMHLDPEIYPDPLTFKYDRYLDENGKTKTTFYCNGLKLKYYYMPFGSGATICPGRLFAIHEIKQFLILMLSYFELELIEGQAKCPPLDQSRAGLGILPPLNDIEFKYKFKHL
Sequence of UniProt P19793 (P19793 whole entry, looked up): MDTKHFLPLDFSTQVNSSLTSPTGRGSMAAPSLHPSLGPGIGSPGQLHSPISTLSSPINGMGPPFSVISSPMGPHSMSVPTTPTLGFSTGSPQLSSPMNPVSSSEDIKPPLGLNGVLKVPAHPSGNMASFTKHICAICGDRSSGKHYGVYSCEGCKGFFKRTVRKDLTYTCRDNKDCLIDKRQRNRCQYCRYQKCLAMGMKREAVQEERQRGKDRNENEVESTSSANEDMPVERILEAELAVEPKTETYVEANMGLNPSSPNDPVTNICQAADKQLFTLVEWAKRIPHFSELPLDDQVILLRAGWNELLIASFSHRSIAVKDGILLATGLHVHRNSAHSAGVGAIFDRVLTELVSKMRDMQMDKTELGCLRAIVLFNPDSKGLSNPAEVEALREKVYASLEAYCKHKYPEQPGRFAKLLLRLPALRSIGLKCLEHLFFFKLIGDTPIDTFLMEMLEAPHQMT
Sequence of UniProt P03372 (P03372 whole entry, looked up): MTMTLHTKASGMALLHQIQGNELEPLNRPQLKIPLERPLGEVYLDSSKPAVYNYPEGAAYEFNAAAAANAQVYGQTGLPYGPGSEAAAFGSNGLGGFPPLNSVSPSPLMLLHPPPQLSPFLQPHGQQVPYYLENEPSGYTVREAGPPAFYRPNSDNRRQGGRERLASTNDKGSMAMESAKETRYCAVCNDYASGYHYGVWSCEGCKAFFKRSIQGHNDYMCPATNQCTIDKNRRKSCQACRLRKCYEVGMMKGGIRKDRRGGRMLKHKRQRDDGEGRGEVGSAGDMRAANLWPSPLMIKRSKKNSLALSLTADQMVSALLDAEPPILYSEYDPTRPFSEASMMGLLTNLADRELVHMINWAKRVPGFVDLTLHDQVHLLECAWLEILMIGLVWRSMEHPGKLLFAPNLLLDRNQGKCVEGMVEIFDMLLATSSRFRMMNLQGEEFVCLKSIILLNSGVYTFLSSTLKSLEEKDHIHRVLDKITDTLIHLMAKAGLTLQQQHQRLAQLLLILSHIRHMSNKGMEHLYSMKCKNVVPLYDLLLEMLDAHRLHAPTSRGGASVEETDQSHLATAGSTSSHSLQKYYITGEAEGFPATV
Sequence of UniProt P04637 (P04637 whole entry, looked up): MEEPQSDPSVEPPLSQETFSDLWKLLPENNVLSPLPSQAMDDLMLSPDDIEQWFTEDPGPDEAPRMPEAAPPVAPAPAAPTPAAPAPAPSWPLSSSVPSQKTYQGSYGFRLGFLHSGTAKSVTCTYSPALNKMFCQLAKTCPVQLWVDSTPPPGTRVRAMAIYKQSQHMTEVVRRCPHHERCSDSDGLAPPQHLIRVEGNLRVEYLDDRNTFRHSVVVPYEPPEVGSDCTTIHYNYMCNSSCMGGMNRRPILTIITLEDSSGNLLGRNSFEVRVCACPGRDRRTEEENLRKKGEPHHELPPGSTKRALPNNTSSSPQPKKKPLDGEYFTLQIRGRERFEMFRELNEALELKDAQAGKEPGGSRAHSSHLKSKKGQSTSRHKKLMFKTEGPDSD
Sequence of UniProt P08684 (P08684 whole entry, looked up): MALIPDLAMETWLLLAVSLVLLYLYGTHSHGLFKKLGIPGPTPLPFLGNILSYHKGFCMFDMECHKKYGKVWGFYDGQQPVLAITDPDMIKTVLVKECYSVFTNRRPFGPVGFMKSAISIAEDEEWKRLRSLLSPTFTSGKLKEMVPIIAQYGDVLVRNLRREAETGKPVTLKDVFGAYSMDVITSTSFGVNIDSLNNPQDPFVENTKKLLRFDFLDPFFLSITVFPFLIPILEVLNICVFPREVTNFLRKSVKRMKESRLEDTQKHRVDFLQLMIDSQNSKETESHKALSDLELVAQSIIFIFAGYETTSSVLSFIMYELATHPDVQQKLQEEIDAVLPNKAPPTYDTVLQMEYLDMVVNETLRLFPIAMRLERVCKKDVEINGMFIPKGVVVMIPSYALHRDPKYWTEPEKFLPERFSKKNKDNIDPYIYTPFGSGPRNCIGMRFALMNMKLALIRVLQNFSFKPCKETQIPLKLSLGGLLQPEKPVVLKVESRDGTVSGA

Turning to `Clc1ccc(Cl)cc1`, the outcome in [1] and in test [2] was inactive.
With `O=C(Oc1ccc(Br)cc1)N1CCN2CCC1CC2`, the AC50 in test [3] is active: 50 µM; in test [5], active: 1.17 µM. In addition, the outcome in test [4] was inactive.
`O=c1[nH]c(=O)n(Cl)c(=O)n1Cl`: the result in test [6], in [7] and in [8] was inactive.
Consider `CCSC(=O)N(CC)C1CCCCC1`, for which the outcome (in test [6]; in test [3]; with CYP2C8 (gene 1558); in test [9]; in test [10]; in [11]) was inactive.
In the case of `O=[N+]([O-])c1ccc(Oc2ccc(Cl)cc2Cl)cc1`, the molecule was classed as inactive in test [12], in test [13], in test [14], in [15], in test [17] and in test [5]. Also, the AC50 in test [16] and in [18] was active: 9.92 µM throughout.
As for `Nc1ccc(N)cc1`, in [19], the molecule was classed as inactive. In [5], the AC50 was active: 79.6 µM.
With `CN=C=S`, the molecule was called inactive in test [20].
Turning to `O=C1CCCN1`, the outcome in [21], in [1] and in test [8] was inactive.

Source of the values: PubChem BioAssay (EPA / NIEHS).
